# Laboratory results taken from the antibiotic and cytotoxicity screens of Wong et al. (2023).
# The other results are listed elsewhere or left out.
# Assays:
# [1] = system: HSkMC (human skeletal muscle cells); assay: cytotoxicity call (relative viability < 0.9); details: 10 µM
# [2] = system: S. aureus RN4220; assay: growth inhibition call (relative growth <= 0.2); details: 50 µM
Compound,cytotoxicity call [1],growth inhibition call [2]
CC(C)[Si](C#CCCc1ccccc1)(O[C@H](c1ccccc1)c1cn(Cc2ccccc2)nn1)C(C)C,inactive,inactive
CCS(=O)(=O)N1Cc2cc(C(=O)NCCOC)nc(-c3cccc(-c4ccncc4)c3)c2[C@H]1CCO,inactive,inactive
COc1ccc(NC(=O)N[C@@H]2CC[C@@H](CCNC(=O)CN3CCOCC3)O[C@@H]2CO)cc1,inactive,inactive
OC[C@H]1O[C@@H](O)[C@@H](O)[C@@H](O)[C@@H]1O,inactive,inactive
O=C1CCNCCN1,inactive,inactive
O=C(C[C@H]1C[C@H]2c3cc(NC(=O)c4ccc5c(c4)OCO5)ccc3O[C@H]2[C@H](CO)O1)NCCN1CCCCC1,inactive,inactive
COCC(=O)N1C[C@H](C)[C@H](OC)CN(C)C(=O)c2cc(NC(=O)c3ccc(F)cc3)ccc2OC[C@@H]1C,inactive,inactive
CC(=O)OC1(C(C)=O)CCC2C3CC(C)C4=CC(=O)CCC4(C)C3CCC21C (configuration not stated),inactive,inactive
NS(=O)(=O)c1ccc(F)c([N+](=O)[O-])c1,inactive,inactive
C[C@@H]1CN([C@H](C)CO)C(=O)c2cc(C#Cc3cccnc3)cnc2O[C@H]1CN(C)S(=O)(=O)c1ccccc1F,inactive,inactive
C[C@@H]1CCCCO[C@@H](CN(C)Cc2ccc(C(=O)O)cc2)[C@H](C)CN([C@H](C)CO)C(=O)c2cc(NC(=O)Nc3ccccc3)ccc2O1,inactive,inactive
